# In all, about 33,000 sequences were measured (“E-score (-0.5 to 0.5)”: median about -0.013, highest 2% from about 0.3 on). Some of the results follow.
# Target: T1, Msn1 (UniProt P22148)
# T1 sequence: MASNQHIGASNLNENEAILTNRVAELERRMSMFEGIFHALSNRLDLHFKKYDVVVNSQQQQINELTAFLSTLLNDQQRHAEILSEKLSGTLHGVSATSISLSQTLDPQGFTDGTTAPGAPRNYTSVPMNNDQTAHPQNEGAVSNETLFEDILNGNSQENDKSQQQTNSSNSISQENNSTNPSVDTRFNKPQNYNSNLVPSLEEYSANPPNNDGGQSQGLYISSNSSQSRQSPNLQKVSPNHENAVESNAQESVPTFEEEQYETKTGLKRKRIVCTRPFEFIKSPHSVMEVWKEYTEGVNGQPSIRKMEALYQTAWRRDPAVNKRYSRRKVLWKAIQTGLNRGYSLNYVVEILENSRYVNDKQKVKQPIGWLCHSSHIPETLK
# Test: PBM E-score (8-mer binding enrichment) (E-score (-0.5 to 0.5)); higher = stronger / more preferred TF binding; most listed sequences are background and not binding sites
# Conditions: protein concentration: 200 nM; construct: GST-full length
# Experimental: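 Universal 'all 10-mer' protein binding microarrays (Agilent AMADID 015681) probed with GST-tagged S. cerevisiae TFs (full-length or DBD) made by in vitro transcription/translation (PURExpress), about 100-200 nM. Bound TF was detected with fluorescent anti-GST. Each ungapped 8-mer (which stands for itself and its reverse complement) is scored by the PBM enrichment score (E-score), a modified Wilcoxon-Mann-Whitney statistic from -0.5 to +0.5, computed with the Universal PBM Analysis Suite. Scale: above 0.35 generally sequence-specific binding.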
row,Sequence,PBM E-score
1,CACGGCGG,-0.178
2,AAGATAAG,-0.00092
3,ACCTAGTA,-0.0332
4,AGAATGCA,0.0198
5,CGGCATGC,0.0592
6,GTTAGCTA,-0.171
7,GCAGACAC,0.203
8,ATCAAATG,0.0888
9,CCGGAATA,0.172
10,GTTAAGCA,0.0312
11,GCGGGGAC,0.15
12,GTGGTTAA,0.048
13,CGTCGTGC,0.117
14,AGGTATAA,0.016
15,AATGTAAA,0.129
16,ACTAGGGG,-0.266
17,TGCCTACA,-0.133
18,ACTAATCG,0.0745
19,CGCGCTAG,0.0353
20,GAGCACGA,-0.0943
21,GCCATACA,-0.0185
22,GATGATCA,-0.0438
23,TACTTCCA,-0.153
24,ATCCACAC,-0.141
25,AAGTGTCG,0.126

row,Sequence,PBM E-score
1,CGTCGGTC,0.105
2,CCCCTTGA,-0.266
3,TAGGTTCA,-0.127
4,ATAGGAGA,-0.321
5,GGCCGTAA,-0.244
6,AGCTAGAT,-0.0171
7,GATAATAC,0.157
8,AATGTAAG,0.151
9,ATACATAT,0.264
10,ACGCAGGA,-0.0513
11,CCGCGTCG,0.0483
12,AAGAGGGG,-0.28
13,GCTTTAAA,-0.0465
14,AATGGGCT,-0.182
15,TGGGGTAA,0.16
16,GCGCGGCC,-0.103
17,ACGCCCTG,-0.0492
18,CATGCGCA,0.0921
19,CCGACGCA,-0.106
20,AACCGGAA,0.0674
21,ACCCAATA,-0.0729
22,CAACACAA,0.0576
23,ATAACATG,0.0693
24,AGCGCTGC,-0.202
25,CAATCGCC,0.0521

row,Sequence,PBM E-score
1,AGCGATCG,-0.0251
2,AATTCAAT,0.224
3,ATCAGCAC,0.009
4,GAACATGC,-0.00705
5,AGTCGAAC,0.00072
6,ACGAAATC,0.0751
7,GATTTCAC,0.129
8,GGGCGTCA,-0.0945
9,GCCGCCAA,-0.201
10,CGCAAATA,0.0325
11,CCCTCACC,-0.36
12,ACAAATAC,0.328
13,ATCGGGAC,0.289
14,CGTCTCCA,0.109
15,AGGAGCTA,-0.303
16,AGTCCAGA,0.0245
17,CGGAGATA,0.143
18,ATCCCGTA,0.00661
19,AAGGGATC,-0.0129
20,CAGCACCG,-0.22
21,CCGAGTAA,0.0151
22,CTGAAGAC,-0.11
23,GACTGCAC,-0.0902
24,ACGACTTA,-0.142
25,GGTCACAC,-0.191

row,Sequence,PBM E-score
1,TCCTCTAA,-0.0667
2,TAGGGTGA,-0.1
3,CCAGACAA,0.258
4,TAACCCGA,0.105
5,TACTACGA,-0.0393
6,CTACCCTA,-0.287
7,GGCTCGTA,-0.0555
8,ACTTGCTG,0.017
9,ACGGCCTC,-0.23
10,CTCATTAC,0.0649
11,TCCGCCAA,-0.0375
12,GTTTACAA,0.092
13,GGCATGCA,0.103
14,AACCCTAC,-0.132
15,ATTATACG,0.138
16,ATGGACCC,-0.0808
17,AGGAGCAC,-0.0928
18,CATGTGTA,0.0787
19,AGGCCAAG,-0.21
20,AACAGGGA,0.134
21,CGAATGCA,0.0194
22,CCCACCCC,-0.109
23,AGCCTCTA,-0.246
24,CAGAGTGC,-0.025
25,AGATATTC,0.14

row,Sequence,PBM E-score
1,AATAAACG,0.16
2,ACATCTTG,0.167
3,CCGGAGAA,0.0438
4,ATCTAGTA,0.178
5,GTCCGTAA,0.291
6,GCCATCCA,-0.326
7,CGTGTGAC,0.0185
8,AAGTTGGC,0.0053
9,ATCAGGGA,-0.0191
10,GCTGTTCC,-0.0793
11,ATGCTATG,-0.104
12,GAGCTTAA,-0.136
13,CCGGTACG,-0.262
14,CTTCCACC,-0.298
15,AGGAGTAA,-0.125
16,GCACTCGA,-0.0517
17,ACTTATTA,0.0338
18,CATAAGCG,-0.0406
19,ACCAGTTC,-0.305
20,CGAATAGA,0.023
21,CCTTGGCG,-0.231
22,CGCTATCC,-0.00857
23,AGGTCTAC,-0.0162
24,GTATATTA,0.166
25,ACTCATTC,0.0308

row,Sequence,PBM E-score
1,TCTCCAAA,-0.012
2,AATGTTGA,-0.0252
3,TGATAGAA,0.0574
4,GATTCTTA,0.232
5,AAAGGCTT,0.0105
6,AAGTGCTG,0.0426
7,CGATTGCA,0.0766
8,ACTCTAAG,-0.076
9,CCCCTTAG,-0.247
10,ACTAGTCG,-0.0243
11,GATTCGTA,-0.0593
12,AACAACCC,-0.00716
13,CTGTCCTA,0.346
14,ATTCGTGC,0.113
15,CATCGAAG,-0.0041
16,AATTCTGG,0.0955
17,TATTGAAA,0.164
18,GCTGATCA,-0.0547
19,ATTGCCCG,0.0964
20,ATTCTTGA,0.062
21,CATGGCAG,0.146
22,AGCGCTGA,0.102
23,CCGGTTAC,0.0498
24,ATCAACCA,-0.0804
25,CCGAGCCG,0.0777

row,Sequence,PBM E-score
1,ATGATCAA,0.0719
2,GGTCCTAC,-0.113
3,ATTTAATG,0.202
4,AGAGCCGC,-0.0659
5,ACGAAGCT,-0.0736
6,ATGTAGCC,-0.116
7,ACATTGGA,0.135
8,CCGTTCTA,0.102
9,CCGCAACA,0.108
10,CGCATCAG,0.00197
11,ACGGGTCG,0.0213
12,ATATCACC,0.129
13,TGAAGGAA,-0.0021
14,CGCGCCAA,-0.0152
15,AATGCTAC,0.0726
16,CTAGTGGA,-0.211
17,GTCTCTTA,0.0849
18,CGCATTCA,0.07
19,AAGCAACG,0.0354
20,ATGACTGA,0.0657
21,GAACCGCA,0.0554
22,AACCTAGA,-0.0385

# Source: the supplement of paper PMC3334620
